Assay [1] deals with T1, GST-Arl15-AL (human) (UniProt Q9NXU5).
T1 sequence: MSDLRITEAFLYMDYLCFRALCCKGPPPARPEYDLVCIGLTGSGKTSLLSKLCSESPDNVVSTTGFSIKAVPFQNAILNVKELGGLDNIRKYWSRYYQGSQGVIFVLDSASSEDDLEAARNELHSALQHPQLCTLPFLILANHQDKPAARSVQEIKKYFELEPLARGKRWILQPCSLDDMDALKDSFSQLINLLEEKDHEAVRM
Nature of the assay: pull-down; bead-immobilized GST-Arl15-AL incubated with HEK293T cell lysates expressing tagged Smads (with or without co-expressed Smad4); 4-14 hr at 4 °C; only the target purified.

Protein sequences, listed by entry. Tags and fused reporters are not part of them. Lines headed by an entry give the natural chain unless they say otherwise; changes in a name come on top. Chains listed by the source or under a name are the forms on record and can include a tag or linker. Residues count along the entry.
UniProt Q13485: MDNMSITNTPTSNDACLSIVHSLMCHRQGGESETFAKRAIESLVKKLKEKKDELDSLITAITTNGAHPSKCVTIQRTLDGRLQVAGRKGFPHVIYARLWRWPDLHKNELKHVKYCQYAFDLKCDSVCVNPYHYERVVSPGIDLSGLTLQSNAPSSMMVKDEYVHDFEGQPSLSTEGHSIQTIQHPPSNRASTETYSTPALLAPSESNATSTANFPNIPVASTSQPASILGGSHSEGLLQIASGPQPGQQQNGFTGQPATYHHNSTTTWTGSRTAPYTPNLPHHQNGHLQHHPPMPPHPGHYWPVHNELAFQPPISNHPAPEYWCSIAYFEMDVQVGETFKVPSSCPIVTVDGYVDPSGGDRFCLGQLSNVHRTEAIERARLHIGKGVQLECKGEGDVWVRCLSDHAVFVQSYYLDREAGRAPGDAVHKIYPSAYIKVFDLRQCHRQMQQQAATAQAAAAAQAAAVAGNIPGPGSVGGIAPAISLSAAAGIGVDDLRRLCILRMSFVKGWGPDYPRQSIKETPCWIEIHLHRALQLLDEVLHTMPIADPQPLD
GST-Smad4-MH1: residues 18-142 of Q13485
UniProt Q15796: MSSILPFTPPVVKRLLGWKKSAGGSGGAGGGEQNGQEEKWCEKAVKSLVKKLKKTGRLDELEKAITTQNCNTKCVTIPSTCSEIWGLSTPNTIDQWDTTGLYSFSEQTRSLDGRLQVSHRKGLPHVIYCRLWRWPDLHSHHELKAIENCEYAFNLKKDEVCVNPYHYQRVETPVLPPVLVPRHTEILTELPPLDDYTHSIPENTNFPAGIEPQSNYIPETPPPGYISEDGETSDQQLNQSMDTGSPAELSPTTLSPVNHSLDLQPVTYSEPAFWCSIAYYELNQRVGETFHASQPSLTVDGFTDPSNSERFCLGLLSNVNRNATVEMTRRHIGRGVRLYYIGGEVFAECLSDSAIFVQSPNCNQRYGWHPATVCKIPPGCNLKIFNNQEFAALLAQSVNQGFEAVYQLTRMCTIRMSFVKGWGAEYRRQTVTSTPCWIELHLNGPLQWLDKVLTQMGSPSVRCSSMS
GFP-Smad2-SA (Q15796, form named): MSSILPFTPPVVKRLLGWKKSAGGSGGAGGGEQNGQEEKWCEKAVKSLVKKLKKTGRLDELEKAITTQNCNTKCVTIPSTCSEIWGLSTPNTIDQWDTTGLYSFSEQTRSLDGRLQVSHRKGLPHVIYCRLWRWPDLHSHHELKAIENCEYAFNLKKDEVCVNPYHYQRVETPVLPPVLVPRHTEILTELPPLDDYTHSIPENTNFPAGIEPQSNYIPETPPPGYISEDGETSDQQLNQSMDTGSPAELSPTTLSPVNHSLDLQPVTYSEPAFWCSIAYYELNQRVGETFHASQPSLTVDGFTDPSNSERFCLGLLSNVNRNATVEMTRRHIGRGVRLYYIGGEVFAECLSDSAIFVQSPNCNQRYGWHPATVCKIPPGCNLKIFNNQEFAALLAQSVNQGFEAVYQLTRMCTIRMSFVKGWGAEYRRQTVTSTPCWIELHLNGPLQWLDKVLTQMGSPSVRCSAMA
GFP-Smad2-SE (Q15796, form named): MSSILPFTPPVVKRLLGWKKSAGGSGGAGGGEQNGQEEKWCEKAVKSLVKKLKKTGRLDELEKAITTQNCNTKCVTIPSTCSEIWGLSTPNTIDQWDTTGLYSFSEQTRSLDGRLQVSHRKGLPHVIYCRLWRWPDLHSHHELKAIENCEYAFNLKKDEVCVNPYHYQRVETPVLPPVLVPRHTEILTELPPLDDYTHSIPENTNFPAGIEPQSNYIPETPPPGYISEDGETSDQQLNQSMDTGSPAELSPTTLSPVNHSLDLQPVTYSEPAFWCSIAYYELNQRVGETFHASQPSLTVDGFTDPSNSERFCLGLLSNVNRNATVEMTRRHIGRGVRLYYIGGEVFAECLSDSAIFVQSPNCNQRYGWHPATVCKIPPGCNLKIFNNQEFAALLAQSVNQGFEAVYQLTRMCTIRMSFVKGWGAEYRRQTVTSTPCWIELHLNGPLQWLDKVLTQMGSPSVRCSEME

The next assay has as its target T2, GST-Arl15-TN (human) (UniProt Q9NXU5).
T2 sequence: T1 sequence with T46N, L86A
The assay can be described thus: pull-down; bead-immobilized GST-Arl15 (AL or TN) incubated with HEK293T cell lysate (normal culture condition); immunoblotted against endogenous Smads; only the target purified. (In western blotting, separated proteins are transferred to a membrane and probed.)

A further assay addresses GST-Smad4 (UniProt Q13485). Nature of the assay: pull-down; bead-immobilized GST-Smad4 incubated with HEK293T cell lysates expressing GFP-Smad2 or GFP-Smad1 (WT, SA or SE) with or without overexpressed Arl15-AL; only the target purified.
The target in assay [2] is T3, Arl15-AL-GFP (human) (UniProt Q9NXU5).
T3 sequence: T1 sequence
Nature of the assay: co-IP; HEK293T cell lysates co-expressing GFP- and Myc-tagged proteins incubated with anti-GFP antibody, captured on protein A/G beads; with or without overexpressed Arl15-AL (Figure 4f).

For another assay, the target named is GFP-Smad2-SA (UniProt Q15796). Described as above.
The target of the next assay is GFP-Smad2-SE (UniProt Q15796). The description is as above.
For another assay, the target named is GST-Smad4-MH1 (UniProt Q13485). Nature of the assay: pull-down; bead-immobilized GST-Smad4-MH1 incubated with HEK293T cell lysates expressing HA-Smad4-MH2 with or without co-expressed Arl15-AL or TN; immunoblotted against HA or Myc-tag; only the target purified.
For assay [3], the target named is T3, Arl15-AL-GFP (human). The assay can be described thus: co-IP; HEK293T cell lysates transiently expressing C-terminally GFP-tagged small G proteins incubated with GFP-Trap beads; immunoblotted against Smad4 and GFP.
A further assay addresses T4, Arl15-TN-GFP (human) (UniProt Q9NXU5).
T4 sequence: T1 sequence with T46N, L86A
Described as above.

A further assay deals with T5, Arl5b-Q70L-GFP (human) (UniProt Q96KC2).
T5 sequence: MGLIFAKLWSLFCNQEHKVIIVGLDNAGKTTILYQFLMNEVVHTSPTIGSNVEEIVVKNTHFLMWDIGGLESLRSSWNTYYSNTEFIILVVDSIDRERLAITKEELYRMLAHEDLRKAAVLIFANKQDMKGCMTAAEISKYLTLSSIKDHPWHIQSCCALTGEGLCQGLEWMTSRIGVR
The assay is described as above.

Another assay addresses T6, Arl5b-T30N-GFP (human) (UniProt Q96KC2).
T6 sequence: T5 sequence with T30N, L70Q
The assay is described as above.

The target in assay [4] is T1, GST-Arl15-AL (human). The assay can be described thus: pull-down; bead-immobilized GST-Arl15 (AL or TN) incubated with HEK293T cell lysate (normal culture condition); immunoblotted against endogenous Smads; only the target purified.

Positions count from the first letter of the chain named. No constants are given. Whether binding was seen depends on the method and setting. Binding seen in cells or lysates may run through a third protein. Some entries that bind do so weakly or less than the wild type. For part of these data: Tags and fused reporters may be left off the sequences shown.

Turning to “GFP-Smad4 R496H (from UniProt Q13485 1-552)”, the binding entry with GST-Arl15-AL (human) [1] is “binds”.
With “GFP-Smad4 R497H (from UniProt Q13485 1-552)”, the binding result with GST-Arl15-AL (human) [1] is “binds”.
In the case of “endogenous Smad2 (from UniProt Q15796 1-467)”, in the assay with GST-Arl15-TN (human), the binding result was “no binding”.
With “GFP-Smad4 M447K (from UniProt Q13485 1-552)”, the binding entry with GST-Arl15-AL (human) [1] was “binds”.
For “GFP-Smad2-SA (from UniProt Q15796 1-467)”, the binding result with GST-Arl15-AL (human) [1] and with GST-Smad4 was “no binding” throughout.
As for “GFP-Smad4 D493H (from UniProt Q13485 1-552)”, the binding result in the assay with GST-Arl15-AL (human) [1] is listed as “binds”.
Turning to “GFP-Smad2-SE (from UniProt Q15796 1-467)”, the binding result with GST-Smad4 is on record as “binds”.
On to Myc-Smad4 (from UniProt Q13485 1-552), for which the binding result is “binds” with GST-Arl15-AL (human) [1], “binds” in the assay with Arl15-AL-GFP (human) [2], “no binding” with GFP-Smad2-SA and “binds” in the assay with GFP-Smad2-SE.
For the substance “GFP-Smad4-WT (from UniProt Q13485 1-552)”, the binding result with GST-Arl15-AL (human) [1] is recorded as “binds”.
As to “GFP-Smad4 L495P (from UniProt Q13485 1-552)”, the binding entry in the assay with GST-Arl15-AL (human) [1] was “binds”.
“HA-Smad4-MH2 (from UniProt Q13485 323-552) (domain or fragment)”: the binding result with GST-Smad4-MH1 is listed as “binds”.
Consider “endogenous Smad4 (from UniProt Q13485 1-552)”, for which the binding result is reported as “binds” in the assay with Arl15-AL-GFP (human) [3]; “no binding” with Arl15-TN-GFP (human); “no binding” with Arl5b-Q70L-GFP (human); “no binding” with Arl5b-T30N-GFP (human); “binds” with GST-Arl15-AL (human) [4]; “no binding” in the assay with GST-Arl15-TN (human).

For the origin of these results see article PMC9352346.
